The supplement of paper PMC11417369
± gives the standard deviation of the averaged measurements. Some of the results follow.

These sequences were tested on PfAP2-LT AP2 domain (GST-tagged) (assay: gcPBM binding intensity (ln(normalized median fluorescence intensity)); higher = stronger DNA binding).
Method in brief: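 Binding intensity is the highest Masliner-normalised natural-log median intensity over replicate spots in either probe orientation. To obtain it, GST-tagged P. falciparum DNA-binding domains made in E. coli were incubated for 1 h on an Agilent 4 × 180k array of primer-extended double-stranded 36-bp intergenic genomic probes plus negative controls. Detection used Alexa488 anti-GST antibody with scanning at 488 nm.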

| Sequence | gcPBM binding intensity (ln) |
| --- | --- |
| TAACTTTGAAAAGATGGTACACAATAATATATATAT [XGTACX_site8667] | 8.83 ± 0.35 |
| ATTGTTATTTATTGTGTGCGCATTAATACATACATA [GTGCAC_site9982] | 9.43 ± 0.37 |
| TAATGTTGAGAATTTTGTACATATAGATCAATTTAT [XGTACX_site5426] | 8.58 ± 0.31 |
| AATCAATTAATATTAGCATAAAATTTTATTATTTTG [XGTACX_negctrl_site479] | 8.48 ± 0.5 |
| TGACATAAAAAATATACACACTATAATATATATACT [CACACA_site4898] | 8.97 ± 0.44 |
| ATAATATGTATGGTCACACAGACAAGGAAAGAATAA [CACACA_site5164] | 9.18 ± 0.55 |
| TGTATCCATATTTGTTCACACACACCCATATTTATA [CACACA_site9190] | 9.46 ± 0.38 |
| GTATATTTTAATATGACACACATATTATATATATAT [CACACA_site2483] | 9.01 ± 0.35 |
| TAAAATAATACAAAATGTACAAAATTTACAAAATGT [XGTACX_site3541] | 8.83 ± 0.55 |
| ATGTAAATTAAACATGGTACACATTATACAAAATTA [XGTACX_site5675] | 8.99 ± 0.52 |
| AATATAGAACAATGTTGTACATATAATAATCTTATA [XGTACX_site4671] | 8.76 ± 0.49 |
| AATATTAAAAACAAAACACACAAAAAAAAATAAACT [CACACA_site6470] | 9.17 ± 0.49 |
| ATTAACACTGAAAAATGTACATATATAAATATAAGC [XGTACX_site8222] | 9.05 ± 0.47 |
| AACGATATCTGTACTACACACATTATGTCATCCTAT [CACACA_site5374] | 9.46 ± 0.37 |
| TCATTATTATTCCTCACACATATATATATATATATT [CACACA_site4375] | 9.18 ± 0.38 |
| AGCACACCCACAAAAACACACACAAAGGTGTTCTTA [CACACA_site8355] | 9.39 ± 0.42 |
| CACTTTTCATATATGACACACAAAAAATTAATAAAA [CACACA_site3639] | 8.7 ± 0.45 |
| GCATGTATAATGGTAGTGCATATAATAATATAATAA [GTGCAC_site9548] | 8.96 ± 0.54 |
| ATTTTGTTCGAAAGGTGTACATATACAAAAATTATG [XGTACX_site957] | 8.79 ± 0.47 |
| TAATAATAAAAATAAACACACATATAGATGTATATA [CACACA_site7360] | 8.82 ± 0.38 |
| ATTGCTTTTCTTTTTGCACACTTATGCATATATATA [CACACA_site2584] | 9.36 ± 0.33 |
| ATATCGTATATGAGTGGTACTAATATGTAAAAAAAA [XGTACX_site7830] | 8.88 ± 0.53 |
| TATTATCTCTTATGAACACACATTTTTATTTTCAAA [CACACA_site3353] | 8.67 ± 0.45 |

| Sequence | gcPBM binding intensity (ln) |
| --- | --- |
| ATATAAGTATTTTGAATGCACTTTCTTTTTTTTTTT | 8.55 ± 0.47 |
| ACTGAAAAAAGAAATACACACATTCTGGATCATATA [CACACA_site3860] | 9.05 ± 0.44 |
| TTATAAAATAATTAATGTACGTTTATGTGTATCGAA [XGTACX_site6117] | 8.52 ± 0.51 |
| AAAGTTATAATACGTACACACCTTATCTTTTTGGCT [CACACA_site6267] | 9.09 ± 0.49 |
| ATATATATGAAAATATGTACATATATATATATATAA [XGTACX_site7550] | 9.28 ± 0.23 |
| TTTATGGGTATGTTTACACACATAAAAAAATATATG [CACACA_site5646] | 8.94 ± 0.35 |
| TTACATATTTATGATTGTACACATTTATAAACAATA [XGTACX_site2190] | 8.47 ± 0.4 |
| TTAATATTGTTATAGCGTACAAATAAACATATTAAA [XGTACX_site8153] | 8.62 ± 0.38 |
| TGATTCTAACTTATGGTGCAACATTATGGACACCGT | 8.67 ± 0.44 |
| TATTTAAAAATAAAATGTACATATTATTATGCATTA [XGTACX_site1303] | 8.48 ± 0.41 |
| ATTATACACGCGCGCACACACAACAAAAAAAAAAAA [CACACA_site7630] | 9.43 ± 0.48 |
| ATAATAATAAAGTGAACACACACATATAATATATAT [CACACA_site9378] | 9.27 ± 0.42 |
| TGGTAACAGCATAGAAAATGGACAAACGAAATATAA [GTGCAC_negctrl_site537] | 8.97 ± 0.61 |
| TAAATAAACAAATTAACACACAGAATTTTTTTTTTC [CACACA_site1674] | 8.62 ± 0.46 |
| AAAAGCTATAAAAATCGGTAATTTATAACAGGAATT [CACACA_negctrl_site469] | 8.74 ± 0.46 |
| AATGTTAAGGAGGGGAGTACATAAAATTCTCTCTCC [XGTACX_site1990] | 8.69 ± 0.37 |
| ATTATGTACTATTATACACACGTTTAATTGTAAATT [CACACA_site4278] | 8.97 ± 0.33 |
| TTTCTAATTATTTCCCTTCAAATATATTAATATCGT [CACACA_negctrl_site429] | 8.61 ± 0.46 |
| TAAAAATGTGGACACACACACATATATATATTTAAT [CACACA_site4941] | 9.43 ± 0.48 |
| ATATATATTATTATATGTACATATAAATATATTAAT [XGTACX_site5270] | 8.61 ± 0.35 |
| AAAAGGAAAATACTAGCACACAATATATAATAAACA [CACACA_site285] | 9.16 ± 0.37 |
| TTAGTATATACATTTGCACACATTATTTTTTAACAT [CACACA_site2618] | 9.23 ± 0.33 |
| ATATTGTAAGTAAAATGTAATAAATATAATAAAATA [CACACA_negctrl_site697] | 8.79 ± 0.42 |

| Sequence | gcPBM binding intensity (ln) |
| --- | --- |
| TCCTTGCATTTTAAAACACACAAAAATTAATTGTTA [CACACA_site7152] | 8.53 ± 0.54 |
| TACATACATAAACACACACACACATATATATATATA [CACACA_site8953] | 10.2 ± 0.23 |
| ATTTTATAAACAAATGAACACACAAACATATATATA [CACACA_site9036] | 9.07 ± 0.42 |
| ATTTGTGTATATTAGAGTACATAAAATTAGAGGAAC [XGTACX_site1654] | 8.87 ± 0.38 |
| ATCAAAAGAAAACACACACACATACATATATATATA [CACACA_site3795] | 10.1 ± 0.3 |
| ACCCATTCAAATTTCGCACACACATACAAAAAAAAA [CACACA_site3094] | 9.42 ± 0.4 |
| CATTAATGACATGATTGTACATAAGCTTTTTTACAT [XGTACX_site1888] | 8.93 ± 0.32 |
| TTCATATATTATTATGCATGTTCATAAATTATCTAA [TGCATGCA_site896] | 8.61 ± 0.36 |
| TTCATATAATTATATACATGCATAAATTCTAAGTAA [TGCATGCA_site622] | 8.45 ± 0.35 |
| TCATACATGGTGTGTTTGCACTTGACCTATATTCAT | 9.04 ± 0.38 |
| TCTTGAATAACAAAAAAATGTGCCAACAAAATAAAT [XGTACX_negctrl_site172] | 8.89 ± 0.49 |
| ACAACTCGGAAGGTTTGTACTTAAAGTATAATTAAG [XGTACX_site737] | 8.61 ± 0.53 |
| TTTGTAAAACTATATTGTACTTTTATATATCTACAA [XGTACX_site5507] | 8.56 ± 0.47 |
| AATTGGAAGAAAAAAAAGGAAGGAAAGTTATTACAT [GTGCAC_negctrl_site74] | 8.59 ± 0.58 |
| TATATACATGCATATACACACATATATTTATTTATA [CACACA_site6327] | 8.93 ± 0.31 |
| TACTGAAATAATTATTTAAACGTTTTTATATGTATT [CACACA_negctrl_site487] | 8.8 ± 0.45 |
| TTTATTTTTTCCAAGTCACACATGTTTTGATATATT [CACACA_site4946] | 8.9 ± 0.49 |
| GTATATATGTATGTATGTACGTATATAGTTATGTAT [XGTACX_site6769] | 8.98 ± 0.3 |
| ATAAAAAAATTAAATACATGCACATATACACATACA [TGCATGCA_site129] | 8.89 ± 0.4 |
| TAAATAGATGTTTTATGTACGTATAAATAAAAAAAA [XGTACX_site3412] | 8.55 ± 0.52 |
| TTTTTTTAAAGACATGCATGTAATATTTAAATCATT [TGCATGCA_site495] | 8.7 ± 0.48 |
| ATTAAAAATATAGTCACACATACACCCATATATATT [CACACA_site5394] | 9.11 ± 0.23 |
| AGGATACACAGACACACACACATATATATATATATA [CACACA_site907] | 10.47 ± 0.064 |

| Sequence | gcPBM binding intensity (ln) |
| --- | --- |
| GATTTTTTTTTGTGGACACACAGAAATAAATTTATA [CACACA_site327] | 8.63 ± 0.44 |
| ATACAACGATATATATATATACAAATACATATTTAT [CACACA_negctrl_site268] | 9.03 ± 0.4 |
| AATATATTTTTTCACTGTACTTTTATTATATATACA [XGTACX_site8312] | 9.13 ± 0.38 |
| AAAAAAAATGGATGATCACACACTTCATAAAAATTG [CACACA_site2213] | 8.87 ± 0.43 |
| ATAATTTTTTGATTTGCATGTAATAAATATATGATA [TGCATGCA_site384] | 8.52 ± 0.33 |
| ACACATATATAAATATGTACATATATATATATACAT [XGTACX_site1595] | 9.15 ± 0.28 |
| TCTATTAATTAATATACACACATTAGATATAAATAT [CACACA_site7241] | 8.62 ± 0.38 |
| TAATTAAATAAAAAAACACACACATATATACATATA [CACACA_site9141] | 9.2 ± 0.22 |
| AAAAAAAAAAAAAAAAGTACTAATTGAATATTAAAC [XGTACX_site3383] | 8.48 ± 0.54 |
| ATGGTAAGTATTTTATGTACATATATATTTATATAA [XGTACX_site4003] | 8.66 ± 0.39 |
| ACATATATATAAATATATATATATATATATATATAT [CACACA_negctrl_site874] | 9.59 ± 0.28 |
| TACACCCATAGACACACACACACGCATAAAAAAAAA [CACACA_site8428] | 9.95 ± 0.55 |
| AAAAAACAAAAAATTACACACATATATAAATATATT [CACACA_site2317] | 8.85 ± 0.37 |
| TAATAAAGGTGTAATACACACTATAAAAAGGAATAT [CACACA_site4756] | 9.04 ± 0.57 |
| ATGTGTATATATTATTGTACATATATATATATATAT [XGTACX_site4627] | 9.48 |
| ACAAGTTAAAATATTACACACATATAAATATATATA [CACACA_site3132] | 8.88 ± 0.38 |
| ATAAGGTTACAACAAACACACAAAGGAATATACTCA [CACACA_site6108] | 9.11 ± 0.44 |
| TTTTATTTACACAGTGGTACTATTAAAAATTAATGA [XGTACX_site6737] | 8.42 ± 0.41 |
| ACTTACACAGTTGATGGTACACTTTTATGATTTTGT [XGTACX_site3205] | 9.21 ± 0.42 |
| TTTTTTAACCTTTTATGTACACAATATTTAACATTT [XGTACX_site1170] | 8.81 ± 0.51 |
